pIC50: −log10 of the molar value.
Test system: pERK in DLD-1 cells (KRAS G13D mutant)
Assay: cells
Conditions: Homo sapiens, DLD-1, 1.5 h, read-out: IC50, inhibitory activity on pERK in DLD-1 cells
Experimental: The degree of ERK protein phosphorylation in KRAS G13D mutant DLD-1 cells was detected by homogeneous time-resolved fluorescence (HTRF), and the IC50 and IC90 values of the compounds were used as indicators to evaluate the inhibitory activity of the compounds on the degree of ERK phosphorylation in the RAS signaling pathway.
1. Experimental Steps and Methods:
• 1) DLD-1 (50,000 cells/well) cells were planted into a 96-well plate with 90 μL of RPMI-1640 medium (10% fetal bovine serum) per well, and cultured overnight at 37° C. in a 5% CO2 incubator. • 2) 10 μL of the 10× compound working solution was taken and added to the cell culture plate as shown in Table 2. 10 μL of DMSO-cell culture medium mixture was added to vehicle control and positive control. The final concentration of DMSO was 0.25%. The 96-well cell plate was returned to the incubator and cultured for 1.5 hours.
• 3) The cell supernatant was removed, 50 μL of 1× lysate was immediately added, and incubated at room temperature for 30 minutes with shaking. • 4) 16 μL of cell lysate was transferred from the 96-well plate to the HTRF 384-well assay plate by pipetting and mixing with a pipette. • 5) 4 μL of the premixed antibody solution was added, the plate was sealed, and incubated at 4° C. The fluorescence emission intensity at 665 nm and 620 nm was detected with an HTRF plate reader. 2. Data Analysis: • 1) The fluorescence wavelength of the Envision instrument was set at 665 nm and 620 nm for fluorescence quantification; • 2) acceptor and donor emission signals per well were calculated: Ratio=Signal 665 nM/Signal 620 nM; • 3) after removing the background value, the raw data was compared with the DMSO treatment group, and the relative pERK level was calculated; • 4) IC50 was calculated based on Log[inhibitor] vs Response-variance slope using GraphPad 8.0 software.

| SMILES | pIC50 |
| --- | --- |
| C=C[C@@H](Nc1nc(C)nc2cc(=O)n(C3(C)CCN(C(C)=O)CC3)cc12)c1cccc(C(F)F)c1F [Compound 9] | 7.44 |
| C=C[C@@H](Nc1nc(C)nc2cc(=O)n(C3(C)CCN(C(=O)OC)CC3)cc12)c1cccc(C(F)F)c1F [Compound 10] | 7.06 |

The next lines start with the values.

| pIC50 | SMILES |
| --- | --- |
| 7.43 | C=C[C@@H](Nc1nc(C)nc2cc(=O)n(C3(C(F)F)CC3)cc12)c1cccc(C(F)F)c1F [Compound 8] |
| 7.59 | C=C[C@@H](Nc1nc(C)nc2cc(=O)n(C3(C)CCN(C(C)=O)C3)cc12)c1cccc(C(F)F)c1F (some centres unmarked) [Compound 13] |
| 7.60 | C=C[C@@H](Nc1nc(C)nc2cc(=O)n(C3(C(F)F)CCN(C(C)=O)C3)cc12)c1cccc(C(F)F)c1F (some centres unmarked) [Compound 15] |

— patent US12552787B2, “Quinazoline compound” (MEDSHINE DISCOVERY INC., priority 2020, dated 2026)
